Reference: PubChem BioAssay AID488969 (Vanderbilt High Throughput Screening Facility, 2010)
In all, about 110,000 compounds were measured (“z-score”: median about -0.1, highest 2% from about 2 on). The list shows a part of the results. Activity calls are given as the source filed them.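 The calls were made as follows: active = z-score in the third read window above 3 or below -3; inactive = the rest.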

Target: Metabotropic glutamate receptor 8 (Rattus norvegicus) (UniProt P70579)
Test: mGluR8 Gi/Go-coupled signaling modulation – cell-based, rat, thallium flux, HTS, primary screen (AID 488969)
Settings: HEK293 rat mGluR8, GIRK (G protein-gated inwardly rectifying potassium channel) thallium flux, FluoZin2; at 10 µM; stronger effect = higher value; submaximal glutamate (EC20) added with thallium

UniProt P70579, sequence (P70579 whole entry, looked up): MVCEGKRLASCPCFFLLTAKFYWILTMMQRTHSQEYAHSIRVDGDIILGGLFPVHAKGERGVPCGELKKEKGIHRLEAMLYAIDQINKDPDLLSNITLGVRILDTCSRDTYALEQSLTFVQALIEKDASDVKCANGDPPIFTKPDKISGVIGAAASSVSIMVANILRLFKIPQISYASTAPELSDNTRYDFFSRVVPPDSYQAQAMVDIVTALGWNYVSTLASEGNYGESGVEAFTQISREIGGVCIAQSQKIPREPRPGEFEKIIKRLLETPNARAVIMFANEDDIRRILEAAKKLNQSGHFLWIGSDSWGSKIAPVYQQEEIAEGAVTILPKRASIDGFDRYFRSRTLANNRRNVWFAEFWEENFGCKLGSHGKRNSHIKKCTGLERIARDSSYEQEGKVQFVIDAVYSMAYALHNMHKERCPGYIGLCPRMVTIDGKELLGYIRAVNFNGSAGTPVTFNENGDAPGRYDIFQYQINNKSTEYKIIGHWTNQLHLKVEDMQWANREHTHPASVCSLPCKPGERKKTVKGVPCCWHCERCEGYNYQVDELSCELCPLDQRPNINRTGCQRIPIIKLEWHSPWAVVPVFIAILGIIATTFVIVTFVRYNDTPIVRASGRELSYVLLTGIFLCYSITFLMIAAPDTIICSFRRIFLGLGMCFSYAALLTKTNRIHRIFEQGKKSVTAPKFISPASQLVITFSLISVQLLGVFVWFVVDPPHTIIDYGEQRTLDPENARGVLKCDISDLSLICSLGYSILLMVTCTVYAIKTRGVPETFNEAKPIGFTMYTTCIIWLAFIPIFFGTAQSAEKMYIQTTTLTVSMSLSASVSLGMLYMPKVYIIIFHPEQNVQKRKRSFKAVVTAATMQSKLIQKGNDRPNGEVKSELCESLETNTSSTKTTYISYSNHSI

Row | Structure (SMILES) | z-score
1 | CC1CCCCN1S(=O)(=O)c1ccc(N(C(=O)c2cnccn2)C(C(=O)NC2CCCC2)c2cccs2)cc1 (stereo not given) | -0.162
2 | COc1ccccc1CNC(=O)COC(=O)c1cnccn1 | -0.203
3 | CC(C)n1c(O)c(N=Nc2ccc(Cl)nn2)c2ccccc21 | active: 3.42
4 | CCOc1cccc(C(=O)Nc2cccc(-c3nnc(-c4ccccc4)o3)c2)c1 | -0.403
5 | Cc1nc2cc(-c3ccccc3)nn2c(C)c1CCC(=O)N1CCN(c2ccccc2)CC1 | -0.274
6 | O=C(O)CSc1c(-c2cccs2)[nH]c2ccccc12 | -0.0174
7 | CCOc1ccc(OCCOCCn2ccnc2)cc1 | 0.0615
8 | CN(CC(=O)Nc1ccc(S(N)(=O)=O)cc1)c1ccccc1 | 0.147
9 | O=C(CC12CC3CC(CC(C3)C1)C2)NCCN1CCOCC1 | 0.208
10 | Cc1ccc(S(=O)(=O)N(NC2=NS(=O)(=O)c3ccccc32)C(=O)c2ccccc2)cc1 | -0.0119
11 | O=C(NC(=S)N(Cc1ccccc1)c1ccccn1)C1CC1 | 0.0087
12 | O=C(c1ccc(=O)oc1)N1CCOCC1 | 0.868
13 | O=C(NCc1ccco1)Nc1ccccc1Cl | -0.581
14 | CCN(CC)C(=O)CSc1nc2nc(C)cc(C)c2c(=O)[nH]1 | -1.25
15 | c1ccc(COCCN2CCN(CCOCc3ccccc3)CC2)cc1 | 0.0701
16 | CC(OC(=O)C(NC(=O)c1ccco1)C(C)C)C(=O)Nc1ncc(Cl)cc1Cl (stereo not given) | -0.132
17 | Cc1cc(NC(=O)c2cc(Cl)ccc2Cl)no1 | 0.273
18 | O=C(NC1CCS(=O)(=O)C1)c1c(NC(=O)C2COc3ccccc3O2)sc2c1CCCC2 (stereo not given) | -0.429
19 | CCOC(=O)N1CCN(C(=O)C2CCN(S(=O)(=O)N3CCCC3)CC2)CC1 | -0.228
20 | Cc1ccc(C(=O)NNC(=O)CCC(=O)Nc2cccc(Cl)c2C)cc1 | -0.265
21 | CC(C)(C)c1ccc(C2C3=C(CCCC3=O)NC3=C2C(=O)c2ccccc23)cc1 (stereo not given) | -0.071
22 | COc1cc(C(=O)/C=C/Nc2ccc(NC(C)=O)cc2)cc(OC)c1OC | 0.433

Row | Structure (SMILES) | z-score
23 | CCN1CCN(c2cc(C)c3cc(NC(=O)Cc4ccccc4OC)ccc3n2)CC1 | 0.0706
24 | COC(=O)C1C(=O)CC(C)(O)C(C(=O)OC)C1/C=C/c1ccccc1 (stereo not given) | -0.0609
25 | Cc1oc(-c2nc3ccccc3n2C)cc1C(=O)c1ccccc1 | -1.1
26 | COc1ccc(NC(=O)C2CC(=O)n3ncnc3N2)cc1 (stereo not given) | -0.061
27 | Cc1nc(C)c(C(=O)Nc2cccc(Cl)c2)o1 | 0.108
28 | COc1ccc(C(=O)Nc2ccccc2)cc1S(=O)(=O)Nc1cc(C)on1 | active: -3.66
29 | C(=N/Nc1nc(-c2ccccc2)cc(-c2ccccc2)n1)/c1cccnc1 | -0.366
30 | CN(CC(=O)NC1CCCCC1)S(=O)(=O)c1ccc(Br)s1 | -0.609
31 | CC(C)[C@H](NC(=O)c1ccccc1)C(=O)OCC(=O)NCCc1ccc(F)cc1 | -0.349
32 | CCc1ccccc1NC(=O)CSc1nc2ccccc2n1CC(=O)N1CCCC1 | -0.11
33 | CCn1c(SCC(=O)NCCOc2ccccc2)nc2ccccc2c1=O | -1.46
34 | Cc1ccc2cc(C#N)c(SCC(=O)N3CCCc4ccccc43)nc2c1C | -0.174
35 | Cc1ccc2c(C)c(C(=O)Nc3c(C)n(C)n(-c4ccccc4)c3=O)oc2c1C | -0.159
36 | CCCn1nnnc1NCc1cccn1C | 1.98
37 | O=C(O)C1CCCN(S(=O)(=O)c2ccc(Cl)s2)C1 (stereo not given) | -0.387
38 | Cc1ccc(S(=O)(=O)c2nc(Nc3ccccc3C#N)sc2Cl)cc1 | -0.235
39 | COc1ccc(C2Nc3ccccc3C(=O)N2Cc2ccccc2)cc1COc1ccccn1 (stereo not given) | -0.3
40 | CCOC(=O)c1sc(NC(=O)CSc2nnc(C(C)C)n2C)nc1C | -0.312
41 | COC(=O)c1ccc(-c2ncc(-c3cccc4ccccc34)o2)cc1 | -0.151
42 | COc1ccc(Cc2nnc(N/N=C/c3ccccc3O)[nH]c2=O)cc1OC | -0.245
43 | CN1C(=O)C2(C(C#N)=C(N)N(c3ccc(Cl)cc3)C3=C2C(=O)CC(C)(C)C3)c2ccccc21 (stereo not given) | -0.197
44 | O=C(c1cc2ccccn2n1)N1CCN(Cc2ccccc2)CC1 | -0.124

Row | Structure (SMILES) | z-score
45 | CCN=C1SC(CC(=O)NCCc2ccc(OC)c(OC)c2)C(=O)N1CC (stereo not given) | 0.523
46 | CC1(C)Cc2ccccc2-c2nnc(SCC(=O)N3CCc4ccccc43)n21 | -1.17
47 | O=C(CN1C(=O)c2ccccc2S1(=O)=O)NCc1ccccc1Cl | -0.294
48 | Cc1noc(C)c1C(=O)NCc1ccccc1 | -0.239
49 | O=C(CSC1CCCCC1)Nc1ccccc1Br | 0.0884
50 | COc1ccc(-c2nc(CS(=O)CC(=O)NCCC3=CCCCC3)c(C)o2)cc1 (stereo not given) | -0.366
51 | CCOC(=O)NC(=O)CSc1nnc(C)s1 | -0.499
52 | CCOC(=O)c1cnc2c(OC)cccc2c1Nc1ccc2c(c1)OCCO2 | -0.685
53 | O=C(Nc1ccc(F)cc1)c1ccccc1F | -0.129
54 | CC(C)(C)c1cc(NC(=O)COc2ccc(Br)cc2)n(-c2ccccc2)n1 | -0.0938
55 | Cc1cccc(C)c1OCC(=O)NCc1nnc(SCC(=O)NC2CCCCC2C)n1C (stereo not given) | -0.0497
56 | COc1ccc(-c2c(S(=O)(=O)c3ccccc3)cnn2-c2ccccc2)cc1 | active: -3.36
57 | COc1ccccc1N(CC(=O)Nc1cccnc1)S(=O)(=O)c1ccccc1 | 0.142
58 | Cc1nn(CC(N)=O)c(=O)c2ccccc12 | 0.232
59 | Cc1ccc(NC(=S)NNc2ncc(C(F)(F)F)cc2Cl)cc1 | 2.19
60 | O=C(CNC(=O)c1ccc(Br)cc1)NCCc1nc2ccccc2[nH]1 | -0.114
61 | CCOC(=O)c1ccc(NC(=O)CCOc2ccc(OC)cc2)cc1 | -0.441
62 | O=C(c1c(Cl)nc2sccn12)N(C(=O)c1c(Cl)nc2sccn12)c1ccc(Cl)cn1 | -0.871
63 | CN1CCN(NC(=O)c2cc([N+](=O)[O-])cc([N+](=O)[O-])c2)CC1 | -0.00308
64 | Cc1cccc(N(C(=O)CNC(=O)c2ccco2)C(C(=O)NC2CCCC2)c2cccnc2)c1 (stereo not given) | -0.121
65 | Cc1cc(C)c2nc(NC(=O)c3ccc(OCC4CCCO4)cc3)sc2c1 (stereo not given) | -0.201
66 | CC(C(=O)N1CCc2ccccc21)N1CCN(c2ccccn2)CC1 (stereo not given) | -0.041

Row | Structure (SMILES) | z-score
67 | O=C1NC(=Nc2ccccc2)c2ccc([N+](=O)[O-])cc21 | -0.111
68 | COc1ccccc1N1C(=O)CC(Sc2ncccc2C(=O)O)C1=O (stereo not given) | -0.0538
69 | CCOC(=O)c1c(C)sc2c1N(C(=O)CN(CC)CC)c1cc(Cl)ccc1S2 | 1.49
70 | CN1/C(=C\C=[N+](C)c2ccccc2)C(C)(C)c2ccccc21 | 0.143
71 | Cc1ccc(-c2cc3nc(-c4ccccc4)cc(N4CCC5(CC4)OCCO5)n3n2)cc1 | -0.0303
72 | COc1ccccc1N/C(N)=N/c1nc(CSc2nc3ccccc3s2)cc(=O)[nH]1 | -0.65
73 | COC(=O)c1cnn2c(C(F)(F)F)cc(-c3ccco3)nc12 | 0.694
74 | COCCNC(=O)c1cc(Br)ccc1Cl | 0.789
75 | Cc1[nH]c2ccccc2c1NC(=O)CN1CCN(Cc2ccc3c(c2)OCO3)CC1 | -0.288
76 | N#Cc1c(NC(=O)CSc2nnc(-c3ccccc3O)n2-c2ccccc2)sc2c1CCCC2 | -0.575
77 | Cc1ccccc1C(=NC(=O)c1ccccc1)c1ccccc1 | -0.0331
78 | CCOc1ccc(-c2nnc(NC(=O)c3ccc(OCC(C)C)c(OC)c3)o2)cc1 | active: 10.4
79 | Cc1ccccc1NC(=O)C1Cc2ccccc2CN1C(=O)OCc1ccccc1 (stereo not given) | -0.408
80 | O=Nc1c(O)n(Cc2ccc(Cl)c(Cl)c2)c2ccccc12 | -0.0596
81 | Fc1cccc(-c2cc3nc4c(c(NCc5ccco5)n3n2)CCCC4)c1 | 0.132
82 | CCOC(=O)c1nnc(-c2ccc(C)cc2)nc1Oc1ccccc1Cl | -0.391
83 | COc1ccccc1CNC(=O)C(=O)NCC1CCCO1 (stereo not given) | -0.0304
84 | CCOc1cc(S(=O)(=O)N2CCC(C(N)=O)CC2)ccc1F | -0.195
85 | CC12CCC(C(=O)NCc3ccccn3)(OC1=O)C2(C)C (stereo not given) | -0.0765
86 | Cc1cc(C(=O)N/N=C2\CC(=O)CC(C)(C)C2)n[nH]1 | 0.0606
87 | N#Cc1c(SCC(=O)O)nc(N2CCCCC2)c2c1CCCC2 | -2.52
88 | CCOC(=O)C1C(=O)OC(C)(C)C1C(C)C(=O)c1ccccc1 (stereo not given) | -0.205

Row | Structure (SMILES) | z-score
89 | CC(C)CCNC(=O)C1CCCCN1S(=O)(=O)c1ccc(F)cc1 (stereo not given) | -0.206
90 | C=CCNC(=O)/C(=C/c1ccco1)NC(=O)c1ccc(Br)o1 | -0.238
91 | Cc1cc(C(=O)N/N=C/c2cccc(Cl)c2Cl)no1 | -0.0874
92 | Nc1ccc(C(=O)OCC(=O)N2CCc3ccccc3C2)cc1[N+](=O)[O-] | -0.12
93 | O=C(c1cc(-c2ccccc2)on1)N1CCN(Cc2ccc3c(c2)OCO3)CC1 | -0.249
94 | Cc1onc(-c2ccccc2Cl)c1C(=O)N(C)C1CCCCC1 | -1.65
95 | CCc1nnc(NC(=O)c2ccc(-c3ccc(Cl)cc3)o2)s1 | -0.00338
96 | N#Cc1cc(N)c(Nc2ccccc2)cc1C#N | -1.57
97 | Cc1nn(C(=O)c2ccc3c(c2)OCO3)c(N)c1-c1ccccc1 | 0.808
98 | Cc1cccc(NC(=S)N2CCC(c3nc4ccccc4s3)CC2)c1 | -0.153
99 | O=C(CSc1nnc(Cc2cc(=O)[nH]c(=O)[nH]2)n1-c1ccccc1)NCC1CCCO1 (stereo not given) | 0.18
100 | CC(C)CCn1cnc2c1c(=O)n(C)c(=O)n2C | 0.28
101 | C/C(N)=C(/C#N)C(=O)CSc1nnc(COc2ccccc2Cl)o1 | 0.832
102 | CC1Cc2cc(-c3csc(NC(=O)Cc4ccccc4)n3)ccc2N1S(C)(=O)=O (stereo not given) | -0.48
103 | Fc1ccc(NC(=S)N2CCCC2)cc1Cl | -0.26
104 | O=c1[nH]c(NCCO)nc2c1C1(CCCCC1)Cc1ccccc1-2 | 0.942
105 | Cc1ccc(-c2csc(NC(=O)c3cccc(N4C(=O)CCC4=O)c3)n2)o1 | -0.22
106 | C/C(CC(=O)NCc1ccccc1)=N\NC(=O)c1cnccn1 | -0.215
107 | CCC(C)NC(=O)N[C@@H](Cc1ccccc1)C(=O)O (stereo not given in full) | -0.394
108 | CCOC(=O)CSc1nnc(Cc2ccc(OC)cc2)n1-c1ccccc1 | 0.371
109 | COc1ccc(/C=N/NC(=O)CCc2c(C)n[nH]c2C)cc1OC | -0.0565
110 | Cc1nn(C)c(C)c1NC(=O)CSc1nc(C2CC2)nc2c1cnn2-c1ccccc1 | 0.634
